Hit rate of the full screen: of about 48,000 compounds, about 450 (0.94%) were called active. Inconclusive means that the source gave no clear call. Such entries were picked first, then a sample of the others. Calls come from the whole dose curve; as a rule, active = well fitted inhibition curve with a large enough effect; inconclusive = small, poorly fitted or top-dose-only effect; inactive = no such curve, though single readings can be large or run the other way. A potency beside an inconclusive call is a rough fit, not a confirmed value.
experiment: Primary qHTS for Identification of Small Molecule Inhibitors of Huntingtin Promoter Activity; conditions: HEK293 HTT promoter firefly luciferase reporter (activity 0% = vehicle and -100% = no light), 24 h; activity change, negative = inhibition: at 57.5 µM (top of the series); note: nearly all actives have a fitted effect of over 50% in size
How it was run: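 Quantitative HTS used concentration series of up to 57.5 uM final on HEK293 luciferase reporter cells, 24 h at 37 degrees C. Readout was Dual-Glo firefly luminescence.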
Potency is the fitted concentration of half-maximal effect; tags give direction and shape of the fitted curve.

Structure (SMILES)	Potency	activity change, negative = inhibition
COc1ccc(/C=C/C(=O)Nc2nc3n(n2)C(c2ccc(F)cc2)C=C(c2ccccc2)N3)cc1 (stereo unspecified)	inconclusive: 28.2 µM [inhibitor, single point]	–
COc1cc(C(=O)n2nc(C)c(Sc3ccc(Cl)cc3)c2C)cc(OC)c1OC	–	inactive: -26.8%
CC(C)c1ccc(NC(=O)CN2C(=O)COc3ccc(S(=O)(=O)N4CCCCCC4)cc32)cc1	inconclusive: 28.2 µM [inhibitor, partial curve, poor fit]	–
O=C(NCc1cccc(Cl)c1)c1ccc2nc(N3CCCCC3)sc2c1	inconclusive: 1.26 µM [inhibitor, partial curve, poor fit]	–
CCN(CC)C(=O)c1ccc(Nc2nnc(-c3ccc(C)c(S(=O)(=O)NC)c3)c3ccccc23)cc1	inconclusive: 39.8 µM [inhibitor, single point]	–
CCOc1ccc(CNS(=O)(=O)c2ccc3c(c2)CCCN3C(C)=O)cc1OC	inconclusive: 15.8 µM [inhibitor, partial curve, poor fit]	–
COc1ccc(C2=C(C)C(=O)N(Cc3ccc(C(=O)NCc4cccc(C)c4)cc3)S2(=O)=O)cc1	inconclusive: 12.6 µM [inhibitor, partial curve, poor fit]	–
COc1ccc(-c2noc(N3CCC(C(=O)N4CCN(c5cccc(C)c5C)CC4)CC3)n2)cc1	inconclusive: 31.6 µM [inhibitor, partial curve, poor fit]	–
O=C(COc1ccc(F)cc1)Nc1ccc2nc(SCC(=O)N3CCOCC3)sc2c1	inconclusive: 31.6 µM [inhibitor, single point]	–
COc1ccccc1CCNC(=O)C1CCN(c2nnc(-n3cccc3CNc3ccc(C)cc3)s2)CC1	inconclusive: 35.5 µM [inhibitor, single point]	–
O=C(O)c1ccc2nc(-c3cc4cccc(O)c4oc3=O)[nH]c2c1	inconclusive: 20 µM [inhibitor, partial curve, poor fit]	–
Cc1ccc(C)c(S(=O)(=O)c2nnn3c2nc(NC(C)C)c2sccc23)c1	inconclusive: 25.1 µM [inhibitor, partial curve]	–
NS(=O)(=O)c1ccc(NC(=O)CN2C(=O)COc3ccc(Cl)cc32)cc1	–	inactive: -16% [at 11.5 µM]
Cc1cnn(C)c1C(=O)Nc1cc(Nc2ccc3c(C=Cc4ccccn4)n[nH]c3c2)ccc1F	inconclusive: 15.3 µM [inhibitor, partial curve]	–
CC(C)C(=O)Nc1ccccc1OCc1cc(=O)n2ccccc2n1	–	inactive: -1.36%
CCC(Oc1ccccc1F)C(=O)N1CCC(c2nc3ccccc3s2)CC1 (stereo unspecified)	inconclusive: 35.5 µM [inhibitor, single point]	–

From PubChem BioAssay AID1508623 (National Center for Advancing Translational Sciences (NCATS), 2021)
